This is one part of the list.

This experiment has as its target T1, OsWOX13 (Oryza sativa, UniProt Q5QMM3 1-267).
T1 sequence: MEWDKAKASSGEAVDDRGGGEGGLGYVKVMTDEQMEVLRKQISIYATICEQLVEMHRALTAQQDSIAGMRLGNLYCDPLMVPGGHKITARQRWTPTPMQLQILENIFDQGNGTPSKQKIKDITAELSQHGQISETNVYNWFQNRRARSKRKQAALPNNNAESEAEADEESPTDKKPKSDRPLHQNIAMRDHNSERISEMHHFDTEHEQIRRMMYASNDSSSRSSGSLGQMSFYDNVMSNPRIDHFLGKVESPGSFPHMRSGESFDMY
The experiment in a line: protein-binding microarray (RPBM); PBS, 2% BSA, 51.3 ng/ul salmon testes DNA, 50 uM zinc acetate, 200 nM TF, 25 C, 1 h; high values mean tight binding. The settings on record: protein: recombinant; tags: N-terminal polyhistidine and DsRed monomer fusion (pET32a); label: CyDye5-dUTP incorporated in the synthesized complementary strand; 3' TTTTT single-stranded linker to array surface; dsDNA, one strand shown. The method in brief: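 Binding signal is reported as fluorescence intensity per feature (arbitrary units) from an Axon 4000B scanner. Incubation used 200 nM of each Ni–NTA-purified, N-terminally polyhistidine- and DsRed-fused transcription factor from E. coli BL21-CodonPlus on a double-stranded custom Agilent array for 1 h at 25 °C, with 50 µM zinc acetate in the buffer, followed by washing.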
Take “CTTAAGTGATTGCAAACACAGTCCTTCACATTACAACTTGCGGAGTCACCTAGTGCAG”: the binding signal was 47000 fluorescence intensity (a.u.).

As for “CGCTTTGCTAATTGCTAGCACAACTCGAATGTGCTGGATCCGGAGTCACCTAGTGCAG”, the binding signal was 10400 fluorescence intensity (a.u.). For “TAAACATCTGATTAGCTAAAAGTGTTTAATTAGATTTCCACGGAGTCACCTAGTGCAG” the value was 21800 fluorescence intensity (a.u.); for “ACACCAATTATGTTCAGAAGAATAAGACTCCATTTGAAGACGGAGTCACCTAGTGCAG”, 3670 fluorescence intensity (a.u.); for “GAGCAAATAAGTTTATTGATAGAAATAAATTTACCCTATACGGAGTCACCTAGTGCAG”, 3900 fluorescence intensity (a.u.).

For “CCAATTTTACTAAATTAAAACTATGCCACTGACGTCACCTCGGAGTCACCTAGTGCAG”, the binding signal is 4770 fluorescence intensity (a.u.). For the sequence “AAACCCCTTACTAATTTATTAATTTATAAACAACAATTTACGGAGTCACCTAGTGCAG”, the binding signal is 5720 fluorescence intensity (a.u.).

With “TTATCGAACATACTAATTGACTCTCAGGGAGTCAAGGATCCGGAGTCACCTAGTGCAG”, the binding signal was 7680 fluorescence intensity (a.u.). The same measure for “GCCAAATTATTGTCAGCTGAATGTGGGCGATGATGCTTTTCGGAGTCACCTAGTGCAG”: 15000 fluorescence intensity (a.u.); for “CCTAATTGACACTACCCTTAAATTTAAGAACTAATCATGTCGGAGTCACCTAGTGCAG”: 31700 fluorescence intensity (a.u.); for “TATATTTTAGGTTCAATCATTAGTACACAAATTTTAAATACGGAGTCACCTAGTGCAG”: 3280 fluorescence intensity (a.u.). The same measure for “TCTTTGTCAATCTTGTTTGGTTGCTCAAATCTTTTGGTGGCGGAGTCACCTAGTGCAG”: 7260 fluorescence intensity (a.u.); for “GAATAATTTATTAAATAATTTATAAATCCTGAAACGAAAACGGAGTCACCTAGTGCAG”: 7340 fluorescence intensity (a.u.). The same measure for “TCAGATTGTTTGCTTTAAATATGAGCAACAATTCGTCTATCGGAGTCACCTAGTGCAG”: 3420 fluorescence intensity (a.u.). “TTATACTGGATTATATTGTTATTTTGTTACATCATCATCACGGAGTCACCTAGTGCAG”: the binding signal is 3560 fluorescence intensity (a.u.).

“CTAATGAGCCTAATTAATCCATGATTAGCCTATGTGATGCCGGAGTCACCTAGTGCAG”: the binding signal is 43000 fluorescence intensity (a.u.). In the case of “GCAATATAGAATTAGATTAGATATATCCCTCGTACACCCTCGGAGTCACCTAGTGCAG”, the binding signal is 5060 fluorescence intensity (a.u.). For “CTACAAAAGCACAACTAATTGGCTGAAATGAAGAGATGGCCGGAGTCACCTAGTGCAG” the value was 6700 fluorescence intensity (a.u.). The same measure for “GTCCATGATTAGCCATAAGTGCTACAGCAACACACACGTGCGGAGTCACCTAGTGCAG”: 22800 fluorescence intensity (a.u.); for “GATGTTAAGTTTTGGGCATATGATTGAATTGTCTTATATACGGAGTCACCTAGTGCAG”: 4180 fluorescence intensity (a.u.). The same measure for “ACGATGAGTTCAGATTGAAAATGTTTACAATATTGATGTTCGGAGTCACCTAGTGCAG”: 3690 fluorescence intensity (a.u.); for “ATTATTGACAGGGACCAATCAACCAATGTTACGAACGCGCCGGAGTCACCTAGTGCAG”: 51800 fluorescence intensity (a.u.); for “AAACTGTTTTAATAATAGATAGATAGATAGATAGATAGATCGGAGTCACCTAGTGCAG”: 18200 fluorescence intensity (a.u.).

The values above are taken from PMC7819943, “Rice protein-binding microarrays: a tool to detect cis-acting elements near promoter regions in rice”.
